Results published in PubChem BioAssay AID493208 (National Center for Advancing Translational Sciences (NCATS), 2011).
The whole screen tested about 44,000 compounds, of which about 340 (0.77%) were called active. Inconclusive results (about 5%) are left out. Calls follow the shape of the dose curve; as a rule, active = well fitted inhibition curve with a large enough effect; inconclusive = small, poorly fitted or top-dose-only effect; inactive = flat fitted curve, though single readings scatter. The list shows a part of the results.

Assay: Acumen qHTS Assay for Inhibitors of the mTORC1 Signaling Pathway in MEF (Tsc2-/-, p53-/-) Cells: Sytravon;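 also: plate controls were DMSO for no effect and rapamycin for full effect; nearly all actives have a fitted effect of over 50% in size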
Conditions: phospho-rpS6 immunofluorescence/PI, 24 h; series mostly up to 38.3 µM; activity change, negative = inhibition: at the top concentration
Outline: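 Tsc2-/-, p53-/- mouse embryonic fibroblasts (empty-vector line) exposed to compound 24 hrs at 37 C, fixed, immunostained for phospho-rpS6 and counterstained with propidium iodide. Acumen laser scanning gives % positive cells from Alexa 488/PI ratio, thresholded using 7.5 nM rapamycin; PI count gives viability.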

Activity change, negative = inhibition, inactive:
O=c1cc(-c2ccccc2)nc(SCc2nc(-c3ccc(Cl)cc3)no2)[nH]1 3.36%
Cc1ccc(S(=O)(=O)N(Cc2nc(-c3cccc(C)c3)no2)C2CCCCC2)cc1 -24.1%
O=C(COCc1cc(-c2ccc3c(c2)OCO3)on1)N1CCN(c2cccc(Cl)c2)CC1 -14.5%
CCN1CCN(C(=O)c2cnn(-c3cccc(Cl)c3)c2C2CCN(C(=O)OC(C)(C)C)CC2)CC1 2.47%
CSC1=NC2(CCN(C(=O)NC3CCCCC3)CC2)N=C1c1ccc(C)cc1 3.37%
COc1ccc(N2Cc3cccc(C(=O)Nc4cc(C)cc(C)c4)c3C2=O)cc1 2.39%
O=C(C1COc2ccccc2O1)N1CCN(c2nc3ccc(F)cc3s2)CC1 (stereo unspecified) 0.293%
Cc1noc(-c2ccc(-c3noc(-c4cccc(F)c4)n3)cc2)n1 -1.24%
NC(=O)C1CCN(C(=O)c2cccc(NC(=O)c3nsc4ccccc34)c2)CC1 11.5%
Cc1cc(F)ccc1NC(=O)CCS(=O)(=O)c1ccc2c(c1)CC(C)N2C(=O)C1CC1 (stereo unspecified) -7.48%
Cn1c(=O)c2c(nc(SCC(=O)Nc3ccccc3)n2Cc2ccccc2F)n(C)c1=O -0.154%
Nc1c(C(=O)Nc2ccc(OC(F)(F)F)cc2)nnn1Cc1ccccc1 14.7%
CCOc1ccc(CNC(=O)CSc2cc(=O)n(CC)c3ccccc23)cc1 -0.758%
CCN(CC)S(=O)(=O)c1nnc(NC(=O)COc2ccccc2F)s1 6.04%
CCc1cccc(C)c1Nc1c(-c2ccccc2)nc2sccn12 -15%
Fc1ccc(CNc2ncnc3onc(-c4ccc(F)cc4)c23)cc1 -5.49%
CCc1c(CN2CCN(c3cccc(C)c3C)CC2)csc1C 3.45%
Cc1ccc(C#N)c(=O)n1CC(=O)Nc1ccccc1C(F)(F)F -1.11%
O=C(C1COc2ccccc2O1)N(Cc1cccnc1)c1nc2ccc(Cl)cc2s1 (stereo unspecified) 2.72%
O=C(NC1CCCCC1)c1ccc(Cn2c(SCc3ccc(F)cc3)nc3cccnc32)cc1 0%
Cc1ccc2c(c1)-c1onc(C(=O)N3CCN(c4ccc(Cl)cc4)CC3)c1CO2 -0.721%
CCOC(=O)N1CCN(Cc2nc3cc(NC(=O)c4ccccc4[N+](=O)[O-])ccc3n2C(C)C)CC1 0.63%
Cc1ccc(-n2c3nc(=O)[nH]c(=O)c-3cc3c(C)nn(-c4ccccc4)c32)cc1Cl -0.501%
Cc1cccc(C)c1NC(=O)NCCc1c[nH]c2ccccc12 -10.8%
CCCNC(=O)C1CCC(Cn2c(=O)c3sccc3n(Cc3ccccc3F)c2=O)CC1 (stereo unspecified) 3.81%
COc1ccccc1CNC(=O)CCn1nc(C)c2c(C)n(-c3ccccc3)nc2c1=O 0.0831%
Brc1ccc(-c2nc3ccccn3c2Nc2ccc3c(c2)OCCO3)o1 5.94%
O=S(=O)(c1ccccc1)c1nnn2c1nc(NCc1ccc(F)cc1)c1sccc12 1.07%
Cc1oc(-c2ccc(Cl)cc2)nc1CS(=O)CC(=O)N1CCN(c2cccc(C(F)(F)F)c2)CC1 (stereo unspecified) -0.854%
COc1cccc(N2CCN(c3ncnc4c3nc3n4CCCCC3)CC2)c1 2.29%
CCCCN(CC)C(=O)CSc1nc2n[nH]c(C)c2c(=N)n1-c1cccc(OC)c1 -10.5%
CCOC(=O)c1c(S(=O)(=O)N2CCC(C(=O)NCc3ccc(F)cc3)CC2)c(C)n(C)c1C -2.8%
CN(C)S(=O)(=O)c1ccc2c(c1)N(CC(=O)Nc1ccc(OC(F)(F)F)cc1)C(=O)CS2 1.75%
C=Cc1ccc(Cn2c(C(=O)O)c(CNC3CCCC3)c3ccc(C)cc32)cc1 -0.212%
Cc1cccc(N(C)C(=O)CCS(=O)(=O)c2ccc3c(c2)oc(=O)n3C)c1 7%
COc1ccc(OCC(=O)NC2CC(=O)N(c3cccc(OC)c3)C2)cc1 (stereo unspecified) 0.623%
COc1ccc(NC(=O)c2cc(S(=O)(=O)N3CCCCCC3)cn2C)c(OC)c1 -9.07%
COc1ccc(NC(=O)CN2CCN(Cc3ccc(F)cc3)S2(=O)=O)cc1Cl -1.91%
CC(C(=O)NCc1ccc(Cl)cc1)n1ccc2cc(S(=O)(=O)N3CCCCCC3)ccc21 (stereo unspecified) -3.02%
O=C(NCc1ccccc1Cl)C1CCCN(S(=O)(=O)c2cccc3nsnc23)C1 (stereo unspecified) -0.708%
COc1ccc(OC)c(CNC(=O)c2c3c(nc4ccccc24)C(=O)N(C2CCCCC2)C3)c1 -16.8%
CCC(=O)N1CCc2cc(Br)cc(S(=O)(=O)N3CCN(c4ccc(C)cc4)C(C)C3)c21 (stereo unspecified) -15%
CCOC(=O)c1c(C)[nH]c(C)c1S(=O)(=O)N1CCC(C(=O)N2CCN(c3ccccc3)CC2)CC1 -6.43%
Cc1ccccc1-c1noc(-c2cccnc2NCc2ccco2)n1 -1.15%
CCOC(=O)c1c(C)[nH]c(C)c1S(=O)(=O)N1CCC(C(=O)N2CCN(c3cccc(Cl)c3)CC2)CC1 -5.07%
Cc1ccc2occ(CC(=O)N(Cc3ccccc3Cl)C3CCS(=O)(=O)C3)c2c1 (stereo unspecified) -0.728%
CCOC(=O)c1cccc(NC(=O)NCc2cccn2Cc2ccccc2)c1 -7.31%
O=C(CSc1oc(-c2ccccc2)nc1S(=O)(=O)c1ccc(Cl)cc1)Nc1ccc(F)cc1 -0.217%
Cc1ccc(Cn2cc(CCC(=O)NC3CCC(C)CC3)c3ccccc32)cc1 (stereo unspecified) -4.66%
CC1CCC(Nc2nc3c(-c4ccc(Cl)cc4)nnn3c3ccccc23)CC1 (stereo unspecified) 3.4%
CC(=O)Nc1ccc(/C=C/c2nc(-c3ccccc3O)n(-c3ccccc3)n2)cc1 2.01%
Cn1c(=O)oc2cc(S(=O)(=O)N3CCCC(C(=O)NCCc4ccc(Cl)cc4)C3)ccc21 (stereo unspecified) -16%
COc1ccccc1CNS(=O)(=O)c1ccc2c(c1)NC(=O)C(C)C(=O)N2 (stereo unspecified) -4.51%
Cc1cccc(-c2nc(C)c(CCNC(=O)C(=O)Nc3cccc(Cl)c3C)s2)c1 1.22%
O=C(NCc1ccccc1)c1cc2sccc2n1Cc1ccc(Cl)cc1 -9.69%
COC(=O)c1ccccc1NC(=O)Cn1c(CCC(=O)O)ccc1-c1cccs1 1.21%
Cc1ccc(-c2nc(-c3cc4c([nH]c3=O)CC(C)(C)CC4=O)sc2C)cc1 4.63%
CCCCSc1nc(-c2ccc(OC)cc2)ccc1C#N -15.9%
CCOc1ccc(N(C)C(=O)CS(=O)(=O)c2cccc3nsnc23)cc1 -0.0889%
COC(=O)CSc1ncc2c(n1)-c1ccccc1N(Cc1ccccc1C)S2(=O)=O 3.23%
CCC(=O)N1CCc2cc(S(=O)(=O)CCC(=O)Nc3ccc(OC(F)(F)F)cc3)ccc21 1.24%
COc1ccc(CC(=O)Nc2sc3c(c2C(=O)Nc2cccc(Cl)c2)CCCCC3)cc1 -13%
COc1ccc2nc3oc(C(=O)N4CCN(c5cc(C)ccc5C)CC4)cc3cc2c1 -5.64%
COc1ccccc1N1CCN(C(=O)C(CCSC)NS(=O)(=O)c2ccc3c(c2)oc(=O)n3C)CC1 (stereo unspecified) -5.64%
CC(C)Oc1ccc(CNC(=O)CCCN2C(=O)CCn3nc(-c4cccn4C)cc32)cc1 0.759%
O=C(c1ccco1)n1nc(-c2ccccc2)nc1NCc1ccc(Cl)cc1 3.91%
Cc1nn(-c2ccccc2)c2c1N(CCCC(=O)NCc1ccc(N(C)C)cc1)C(=O)CS2 -11%
CCc1ccc(NCc2cc3ccc(OC)cc3n(CC(=O)Nc3ccc(F)cc3F)c2=O)cc1 -3.17%
CCC(=O)N1c2ccccc2CC1C(=O)N1CCN(c2cccc(Cl)c2)CC1 (stereo unspecified) 1.86%
Cc1nn2c(=O)cc(COC(=O)c3ccco3)nc2s1 -5%
COc1cccc(CNCCSc2nnnn2C)c1OCc1ccccc1Cl -0.128%
COc1cccc(CNS(=O)(=O)c2ccc3c(c2)CCN3C(=O)C2CCC2)c1 0.163%
O=C(Nc1ccc(F)cc1)N1CCN(c2ccccc2F)CC1 -1.66%
COc1ccc(N2C(=O)CS(=O)(=O)C23C(=O)N(Cc2cccc(F)c2)c2ccccc23)cc1OC (stereo unspecified) 4.55%
O=C(CC(c1cccs1)N1Cc2ccccc2C1=O)Nc1ccc(F)c(F)c1 (stereo unspecified) -5.61%
Cc1ccc(C)c(S(=O)(=O)c2nnn3c2nc(Nc2ccc(C)c(C)c2)c2sccc23)c1 -1.38%
Cc1cc(=O)[nH]c2nnc(SCc3ccc(F)cc3)n12 0.728%
CCOC(=O)c1ccc(-n2c(CCC(=O)O)ccc2-c2ccc(Br)cc2)cc1 -4.98%
COc1ccc(Cn2c(SCC(=O)NCc3ccc(Cl)cc3)nc3ccsc3c2=O)cc1 -6.2%
Cc1cc(Cl)ccc1OCC(=O)Nc1c(Cl)ccc2nsnc12 -10.8%
O=C(NCc1cccs1)c1ccc(Cn2c(SCc3ccccc3)nc3cccnc32)cc1 -0.829%
O=C(Nc1c(C(=O)N2CCN(c3ccccc3)CC2)oc2ccccc12)c1ccc(Br)o1 -3.47%
COc1ccccc1-c1nc(SCC(=O)NCc2ccc(C)cc2)c2c(=O)n(C)c(=O)n(C)c2n1 -15.2%
O=C(COc1ccccc1F)Nc1ccc2oc(-c3cccc(Cl)c3)nc2c1 0%
Cc1cccc(CN2C(=O)N(c3ccc(C(C)C)cc3)S(=O)(=O)c3ccccc32)c1 0.862%
Cc1ccc(-c2ccc(=O)n(CC(=O)Nc3ccc(C)cc3Cl)n2)cc1 -2.48%
COc1cccc(/C=C/c2nc(C#N)c(NCCc3ccccc3)o2)c1 0.814%
COc1ccc(C(=O)Nc2ccc3oc(-c4cccnc4)nc3c2)cc1 -1.3%
Clc1cccc(N2CCN(c3nc4ccccc4n4nnnc34)CC2)c1 0.173%
COc1ccc(C2C=C(c3ccccc3)Nc3nc(NC(=O)c4cccc([N+](=O)[O-])c4)nn32)cc1 (stereo unspecified) 2.1%
Cc1c(C(=O)NCc2ccccc2)sc2nc3n(c(=O)c12)CCCCC3 4.1%
CCOc1ccc(NC(=O)C2CC(=O)NC(=Nc3ccc(Cl)c(Cl)c3)S2)cc1 (stereo unspecified) -22.7%
CCOC(=O)c1ccc(NC(=O)C2CCCN(c3ncnc4onc(-c5ccc(F)cc5)c34)C2)cc1 (stereo unspecified) -6.04%
COc1cccc(CNC(=O)c2sc3nc(C)cc(C)c3c2-n2cccc2)c1OC 0.166%
Cc1ccc(Cl)cc1N1CCN(C(=O)c2ccc(NC(=O)c3nsc4ccccc34)cc2)CC1 -8.17%
CCOC(=O)COc1ccc(CC)cc1C(=O)c1ccn2nc(-c3ccccc3)cc2n1 1.29%
